Data: paper PMC2927437
No constants are given. Whether binding was seen depends on the method and setting. In cells and extracts the contact can be indirect. Some binding calls cover weakened binding; strength is not graded here. For part of these data: Tags and fused reporters may be left off the sequences shown. Values belong to the molecule of their own block, whether it stands above or below them.

Amino acid sequences for entries named in this document (tags omitted).
UniProt Q9CQJ4: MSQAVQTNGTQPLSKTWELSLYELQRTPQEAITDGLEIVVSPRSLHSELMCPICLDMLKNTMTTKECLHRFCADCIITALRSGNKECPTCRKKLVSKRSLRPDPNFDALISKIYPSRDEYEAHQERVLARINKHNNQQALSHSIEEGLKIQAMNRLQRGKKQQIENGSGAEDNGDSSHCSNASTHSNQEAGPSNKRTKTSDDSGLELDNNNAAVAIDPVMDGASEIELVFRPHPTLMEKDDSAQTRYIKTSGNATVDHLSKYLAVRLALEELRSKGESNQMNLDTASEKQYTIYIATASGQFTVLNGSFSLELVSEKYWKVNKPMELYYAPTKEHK
UniProt Q61188: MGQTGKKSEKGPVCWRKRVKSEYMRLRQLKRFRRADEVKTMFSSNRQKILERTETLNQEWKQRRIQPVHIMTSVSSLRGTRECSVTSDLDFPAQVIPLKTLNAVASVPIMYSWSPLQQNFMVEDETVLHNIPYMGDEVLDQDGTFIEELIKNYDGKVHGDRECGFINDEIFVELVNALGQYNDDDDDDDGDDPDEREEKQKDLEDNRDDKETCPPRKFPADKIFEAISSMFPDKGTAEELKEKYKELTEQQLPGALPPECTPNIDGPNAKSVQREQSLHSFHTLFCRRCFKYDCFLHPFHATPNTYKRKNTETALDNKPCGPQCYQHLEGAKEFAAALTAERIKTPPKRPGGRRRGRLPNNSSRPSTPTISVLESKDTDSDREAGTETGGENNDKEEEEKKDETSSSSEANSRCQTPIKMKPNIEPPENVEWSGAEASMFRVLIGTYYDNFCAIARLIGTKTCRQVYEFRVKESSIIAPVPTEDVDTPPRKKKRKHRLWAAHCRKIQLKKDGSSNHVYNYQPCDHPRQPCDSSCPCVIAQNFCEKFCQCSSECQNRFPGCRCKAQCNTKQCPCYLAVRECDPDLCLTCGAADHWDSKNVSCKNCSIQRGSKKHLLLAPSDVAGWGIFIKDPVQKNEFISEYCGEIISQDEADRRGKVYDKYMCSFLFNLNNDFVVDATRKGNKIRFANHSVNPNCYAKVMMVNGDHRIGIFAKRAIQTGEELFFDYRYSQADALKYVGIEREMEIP

Columns and labels:
[1] = molecular target: T1, endogenous Zfp277 (mouse (endogenous in MEFs)) (UniProt E9Q6D6); assay: co-IP; endogenous proteins; whole-cell extracts of MEFs immunoprecipitated with rabbit anti-Zfp277 serum or anti-Bmi1 monoclonal antibody, control IgG; Western blot
T1 sequence: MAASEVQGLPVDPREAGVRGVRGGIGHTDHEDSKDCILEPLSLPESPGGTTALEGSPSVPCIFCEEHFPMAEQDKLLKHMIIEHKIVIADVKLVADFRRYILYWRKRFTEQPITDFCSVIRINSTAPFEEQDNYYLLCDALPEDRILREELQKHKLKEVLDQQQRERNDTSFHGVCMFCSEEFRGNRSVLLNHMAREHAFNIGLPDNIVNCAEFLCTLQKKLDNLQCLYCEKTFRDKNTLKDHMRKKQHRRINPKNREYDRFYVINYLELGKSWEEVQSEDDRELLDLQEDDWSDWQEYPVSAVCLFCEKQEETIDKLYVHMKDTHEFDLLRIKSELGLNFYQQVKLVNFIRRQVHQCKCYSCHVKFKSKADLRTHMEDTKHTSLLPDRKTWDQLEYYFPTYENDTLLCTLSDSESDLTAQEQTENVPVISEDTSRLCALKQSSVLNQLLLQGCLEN

[2] = molecular target: T2, endogenous Bmi1 (mouse (endogenous in MEFs)) (UniProt P25916); assay: as above
T2 sequence: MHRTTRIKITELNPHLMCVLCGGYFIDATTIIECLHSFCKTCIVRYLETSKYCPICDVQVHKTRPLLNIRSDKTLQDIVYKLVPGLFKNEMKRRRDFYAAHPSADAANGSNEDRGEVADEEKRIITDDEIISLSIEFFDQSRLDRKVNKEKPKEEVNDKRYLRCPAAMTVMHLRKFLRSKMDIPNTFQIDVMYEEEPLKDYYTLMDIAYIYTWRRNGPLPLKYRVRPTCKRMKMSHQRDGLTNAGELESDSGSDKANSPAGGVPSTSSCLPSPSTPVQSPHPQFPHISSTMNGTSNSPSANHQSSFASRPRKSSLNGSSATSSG

Myc-tagged Mel18 = molecular target: T3, Myc-tagged Mel18 (UniProt P23798); assay: co-IP; HA-Zfp277 cotransfected with Flag-tagged Bmi1, Ring1B, Ezh2 or Myc-tagged Mel18 into human 293T cells; lysis in 20 mM sodium phosphate pH 7.0, 250 mM NaCl, 0.1% NP-40, 4°C; Western blot of the immunoprecipitates
T3 sequence: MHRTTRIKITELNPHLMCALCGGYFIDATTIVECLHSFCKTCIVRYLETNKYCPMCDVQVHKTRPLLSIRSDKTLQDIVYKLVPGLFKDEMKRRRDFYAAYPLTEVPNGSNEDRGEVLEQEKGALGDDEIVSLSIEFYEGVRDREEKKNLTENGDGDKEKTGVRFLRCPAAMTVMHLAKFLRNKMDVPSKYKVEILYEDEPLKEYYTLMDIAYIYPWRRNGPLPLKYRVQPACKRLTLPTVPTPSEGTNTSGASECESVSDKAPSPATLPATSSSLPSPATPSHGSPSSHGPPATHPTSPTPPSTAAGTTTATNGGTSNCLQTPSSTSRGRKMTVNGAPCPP

[3] = molecular target: T4, Flag-tagged Bmi1 fused with GFP (UniProt P25916); assay: as above
T4 sequence: T2 sequence

Flag-tagged Ring1B = Flag-tagged Ring1B (UniProt Q9CQJ4); assay: as above
Flag-tagged Ezh2 = Flag-tagged Ezh2 (UniProt Q61188); assay: as above
GST-Bmi1 = molecular target: T5, GST-Bmi1 (UniProt P25916); assay: pull-down; GST in vitro binding assay: GST fusion protein with in vitro-translated partner; only the target purified
T5 sequence: T2 sequence

GST-Zfp277 (mouse) = molecular target: T6, GST-Zfp277 (mouse) (UniProt E9Q6D6); assay: as above
T6 sequence: T1 sequence

[4] = molecular target: T7, HA-tagged Zfp277^1-140 (mouse) (UniProt E9Q6D6); assay: co-IP; HA-tagged deletion mutants of Zfp277 and Flag-tagged Bmi1 cotransfected into 293T cells, 48 hrs; immunoprecipitated with anti-HA, blotted with anti-Flag or anti-HA
T7 sequence: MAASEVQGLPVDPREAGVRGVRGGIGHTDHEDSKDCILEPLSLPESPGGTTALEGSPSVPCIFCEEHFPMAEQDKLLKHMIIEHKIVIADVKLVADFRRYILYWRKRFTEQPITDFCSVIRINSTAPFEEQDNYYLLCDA

[5] = molecular target: T8, HA-tagged Zfp277^1-58 (mouse) (UniProt E9Q6D6); assay: as above
T8 sequence: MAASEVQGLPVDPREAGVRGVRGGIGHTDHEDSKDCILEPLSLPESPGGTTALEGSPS

Molecule: endogenous Ezh2 (from UniProt Q61188 1-746)
- binding [1]: no binding

B1: HA-tagged Zfp277 (Zinc finger domain-containing protein 277) (protein, UniProt E9Q6D6-2 1-457)
chain: T1 sequence
- binding (Myc-tagged Mel18): no binding
- binding [3]: binds
- binding (Flag-tagged Ring1B): no binding
- binding (Flag-tagged Ezh2): no binding

B2: endogenous Zfp277 (protein, UniProt E9Q6D6-2 1-457)
chain: T1 sequence
- binding [2]: binds

B5: endogenous Bmi1 (protein, UniProt P25916 1-324)
chain: T2 sequence
- binding [1]: binds

Now from value to molecule:

- binding [2]: binds
Molecule: endogenous Ring1B (from UniProt Q9CQJ4 1-336)

- binding (GST-Bmi1): binds
B3: in vitro-translated Zfp277 (protein, UniProt E9Q6D6-2 1-457)
chain: T1 sequence

- binding (GST-Zfp277 (mouse)): no binding
B4: in vitro-translated Mel18 (protein, UniProt P23798 1-342)
chain: T3 sequence

- binding [4]: binds
- binding [5]: binds
B6: Flag-tagged Bmi1 fused with GFP (protein, UniProt P25916 1-324)
chain: T2 sequence
